In paper PMC7857480 (The Journal of Biological Chemistry, 2020):

Legend:
[1] = molecular target: T1, R. pickettii NIS synthetase (Ralstonia pickettii, UniProt A0ABM9IQT6); experiment: in vitro siderophore biosynthesis, CAS detection and LC-MS of homorhizoferrin (m/z […]); type: biochemical; conditions: 10 mM cadaverine; 3 mM Na-citrate, 2.25 mM ATP, 15 mM MgCl2, 50 mM HEPES pH 7.4, RT 2 h
T1 construct: gene R38712_03424; full-length ORF (655 residues), N-terminal His tag from pET28b-TEV, codon-optimised, expressed in E. coli

[2] = molecular target: T1, R. pickettii NIS synthetase; experiment: in vitro siderophore biosynthesis, CAS detection and LC-MS of rhizoferrin (m/z […]); type: biochemical; conditions: 10 mM putrescine; 3 mM Na-citrate, 2.25 mM ATP, 15 mM MgCl2, 50 mM HEPES pH 7.4, RT 2 h

SMILES | in vitro siderophore biosynthesis, CAS detection and LC-MS of homorhizoferrin (m) [1] | in vitro siderophore biosynthesis, CAS detection and LC-MS of rhizoferrin (m/z 4) [2]
NCCCCCN [cadaverine] | Putrescine and cadaverine produced a strong CAS reaction | –
NCCCCN [putrescine] | – | Putrescine and cadaverine produced a strong CAS reaction
